Assay results published in the supplement of paper PMC11417369.
± gives the standard deviation of the averaged measurements. The list shows a part of the results.

system: PfAP2-I AP2 domain 3 (GST-tagged); assay: gcPBM binding intensity (ln(normalized median fluorescence intensity)); higher = stronger DNA binding
In short: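 The highest Masliner-normalised natural-log median intensity across replicate spots of either probe orientation is reported as binding intensity. GST-tagged P. falciparum DNA-binding domains expressed in E. coli were applied for 1 h to an Agilent 4 × 180k array of primer-extended double-stranded 36-bp intergenic genomic probes plus negative controls, and bound protein was detected with Alexa488 anti-GST antibody and scanned at 488 nm.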

Q: For “CAACGATACAAAAAAGGTACACATATATATATATAT [XGTACX_site8688]”, which “gcPBM binding intensity (ln)” value is on record?
A: 9.32 ± 0.085

Q: With “TATATAAAATTCTATTGTACATGTTATACGAAAGAA [XGTACX_site5711]” as the sequence, how does the “gcPBM binding intensity (ln)” value read?
A: 7.88 ± 0.32

Q: Which “gcPBM binding intensity (ln)” value does the source give for “CAATTTTCTAATGAAACATGCAAAATAAAATTTTAT [TGCATGCA_site13]” here?
A: 7.7 ± 0.82

Q: For “TTCTTTTTAATGTCGGTGCAACTCCATAAAAACAAA [GTGCAC_site9488]”, which “gcPBM binding intensity (ln)” value is on record?
A: 9.2 ± 0.22

Q: Which “gcPBM binding intensity (ln)” value does the source give for “CAAATACATAGACACACACACATATACATATTTATA [CACACA_site7610]” here?
A: 7.79 ± 0.49

Q: For “TTTATATTTAAATGCATGCACTTTCTATTTTTTTTT [GTGCAC_site9959]”, which “gcPBM binding intensity (ln)” value is on record?
A: 8.47 ± 0.54

Q: For “GAATAAAGGAGAGGCACACATATATATATATATATA [CACACA_site2452]”, which “gcPBM binding intensity (ln)” value is on record?
A: 9.34 ± 0.73

Q: With “TATTTGATAAATTATACACACACAATATATATAAAA [CACACA_site8625]” as the sequence, how does the “gcPBM binding intensity (ln)” value read?
A: 7.69 ± 0.52

Q: How did the “gcPBM binding intensity (ln)” value turn out when “AATAAAAAGAAACACACACACACACCCATATATATA [CACACA_site3589]” was run?
A: 8.29 ± 0.76

Q: How did the “gcPBM binding intensity (ln)” value turn out when “AAAGATACTTTCCTCAAACACACAAAACTATACAAC [CACACA_site1475]” was run?
A: 8.12 ± 0.39

Q: For “TTATCACATTATTGCACACACATAAAGAAAAAAATA [CACACA_site2841]”, which “gcPBM binding intensity (ln)” value is on record?
A: 9.93 ± 0.41

Q: Which “gcPBM binding intensity (ln)” value does the source give for “ATATAAGAACAAAATTGTACATAAATATTTATATAA [XGTACX_site7404]” here?
A: 7.71 ± 0.37

Q: “AAAAAAAAGGAAAATAAAAATAAAAAAAAATAATAA [XGTACX_negctrl_site601]” was tested. Which “gcPBM binding intensity (ln)” value did it give?
A: 7.33 ± 0.64

Q: How did the “gcPBM binding intensity (ln)” value turn out when “TGAGAAAAAAAGAATTGTACATATAAAATATAACAA [XGTACX_site3500]” was run?
A: 7.49 ± 0.49

Q: For “TTTAAAAAAAAAAAAAAAAAAAAAAAAAAAAATTTG [CACACA_negctrl_site1235]”, which “gcPBM binding intensity (ln)” value is on record?
A: 7.26 ± 0.48

Q: Which “gcPBM binding intensity (ln)” value does the source give for “AAAAAAATATATATATATATATATATATTATATATG [GTGCAC_negctrl_site654]” here?
A: 7.89 ± 0.49

Q: “TTTTATTATTTTTGTTGTACAGTATACTGTATGATT [XGTACX_site5359]” was tested. Which “gcPBM binding intensity (ln)” value did it give?
A: 8.05 ± 0.59

Q: For “TAATTATAGGTATACACACACATACATTTACATAAC [CACACA_site7509]”, which “gcPBM binding intensity (ln)” value is on record?
A: 7.97 ± 0.43

Q: With “TCATACATTTTCCTTGCACACATTTATAATTAATGG [CACACA_site4511]” as the sequence, how does the “gcPBM binding intensity (ln)” value read?
A: 8.65 ± 0.59

Q: How did the “gcPBM binding intensity (ln)” value turn out when “AACAAACACAGACACACACACACACTAATATGATTA [CACACA_site8770]” was run?
A: 8.01 ± 0.44

Q: “ATATACTATTATGTGTGTACATAATAATTTATTATA [XGTACX_site3776]” was tested. Which “gcPBM binding intensity (ln)” value did it give?
A: 7.84 ± 0.37

Q: With TAAAACAAAAAAAAGATGCACTATTTATTTTATTAT as the sequence, how does the “gcPBM binding intensity (ln)” value read?
A: 9.9 ± 0.23

Q: For “TATTCCTTCTACAATTAAATAATTATAATAAATATA [GTGCAC_negctrl_site26]”, which “gcPBM binding intensity (ln)” value is on record?
A: 7.9 ± 0.16

Q: With “GTATCATTAAATTATTGTACATATATATATATATAT [XGTACX_site8809]” as the sequence, how does the “gcPBM binding intensity (ln)” value read?
A: 9.42 ± 0.48

Q: With “TATTTTTGTATATATTTATTCTTATTTTACAGGAAA [TGCATGCA_negctrl_site472]” as the sequence, how does the “gcPBM binding intensity (ln)” value read?
A: 8.02 ± 0.014

Q: How did the “gcPBM binding intensity (ln)” value turn out when “AACAAAAATAGAAACACACATACATTGGTTTTCTTT [CACACA_site2534]” was run?
A: 7.84 ± 0.95

Q: “ACATTTAAGTTTAGCTGTACATATTCATCATAATTA [XGTACX_site37]” was tested. Which “gcPBM binding intensity (ln)” value did it give?
A: 7.99 ± 0.37

Q: For “ATATCACATTCCACGGTACACACTAAAAGAAAAATC [CACACA_site3611]”, which “gcPBM binding intensity (ln)” value is on record?
A: 8.36 ± 0.47

Q: For “GCGGGTTTATCTTTCGCACACCTTACATTTTAGAAT [CACACA_site2015]”, which “gcPBM binding intensity (ln)” value is on record?
A: 8.32 ± 0.59

Q: How did the “gcPBM binding intensity (ln)” value turn out when “AGTTTTATGTAGTGTTGTACTTTATACAAATATATT [XGTACX_site614]” was run?
A: 8.09 ± 0.44

Q: For “ATAAATCAAAGGCACACACACAAAAAAAAAAAAAAA [CACACA_site160]”, which “gcPBM binding intensity (ln)” value is on record?
A: 8.36 ± 0.16

Q: With “TGTTTTTTATATTACTGTACATGTTTTGGAATAATA [XGTACX_site4716]” as the sequence, how does the “gcPBM binding intensity (ln)” value read?
A: 7.92 ± 0.53

Q: For “AAGAAAAAATATAATAATAATAAAATATATATAATA [TGCATGCA_negctrl_site475]”, which “gcPBM binding intensity (ln)” value is on record?
A: 7.29 ± 0.69

Q: With “TTTGTTTTTCATAGTGCACACATAACCAAAAATAGT [CACACA_site9030]” as the sequence, how does the “gcPBM binding intensity (ln)” value read?
A: 11.3 ± 0.46

Q: With “TATTGTTTTGATTGATGTACATGTTTAAAATATATA [XGTACX_site8430]” as the sequence, how does the “gcPBM binding intensity (ln)” value read?
A: 7.99 ± 0.071

Q: Which “gcPBM binding intensity (ln)” value does the source give for “TAATCTATTTATATGTGTACCTATTTAGAAATGACA [XGTACX_site5709]” here?
A: 7.79 ± 0.59

Q: How did the “gcPBM binding intensity (ln)” value turn out when “AAAGTAAATTTAAGCACACACAACGAACTTTTATAC [CACACA_site7008]” was run?
A: 8.63 ± 0.23

Q: How did the “gcPBM binding intensity (ln)” value turn out when “TGTTGTAAATATGTTTGTACATAAATATATTATTTA [XGTACX_site5442]” was run?
A: 7.71 ± 0.33

Q: With “TATATTTACATTGTAACACACATGAAATATATATAT [CACACA_site61]” as the sequence, how does the “gcPBM binding intensity (ln)” value read?
A: 8.74 ± 0.21

Q: For “TTTTTTATTGTGATACGTATATTATTTTTTGATAAA [CACACA_negctrl_site1]”, which “gcPBM binding intensity (ln)” value is on record?
A: 7.92 ± 0.73

Q: Which “gcPBM binding intensity (ln)” value does the source give for “TTAATTAATAGACACACACACATATAAATATAGATT [CACACA_site7143]” here?
A: 7.82 ± 0.44

Q: “AAAAAAAAATAATATTGTACACACATAAATTCTTTG [XGTACX_site4315]” was tested. Which “gcPBM binding intensity (ln)” value did it give?
A: 7.51 ± 0.47

Q: “GTTTTATTAAAAATGTGTACTTAATTATGAAAAAAA [XGTACX_site4689]” was tested. Which “gcPBM binding intensity (ln)” value did it give?
A: 7.95 ± 0.28

Q: Which “gcPBM binding intensity (ln)” value does the source give for “GTGTATTTTCTGCGCACACACATGCAAAAAGAAATA [CACACA_site1148]” here?
A: 9.355 ± 0.021

Q: With “AAGAAAAAATAAACATGTACATAAATATATATATAT [XGTACX_site304]” as the sequence, how does the “gcPBM binding intensity (ln)” value read?
A: 9.4 ± 0.46

Q: For “ATTTAATTTATAAAAACACACACAGGTAAAAAGGTG [CACACA_site8306]”, which “gcPBM binding intensity (ln)” value is on record?
A: 8.51 ± 0.5

Q: How did the “gcPBM binding intensity (ln)” value turn out when “ATTTTTTTTTTTATGTGTACATATATTTTTTTAATT [XGTACX_site7921]” was run?
A: 8 ± 0.38

Q: For “CATACTGTGATAGCACCACACACGCAAAAGAGGGTA [CACACA_site8285]”, which “gcPBM binding intensity (ln)” value is on record?
A: 9.32 ± 0.17

Q: Which “gcPBM binding intensity (ln)” value does the source give for “TAAGGCCCTTTTCATCGTACAGTAAAATATAAATAA [XGTACX_site1278]” here?
A: 7.84 ± 0.2

Q: How did the “gcPBM binding intensity (ln)” value turn out when “GAAAATTCTTAAGGCACACACATATATAATATATAC [CACACA_site569]” was run?
A: 10 ± 0.53

Q: How did the “gcPBM binding intensity (ln)” value turn out when “AATTTAACCCATTTTATAATTATTACCACTATATAT [TGCATGCA_negctrl_site452]” was run?
A: 8.08 ± 0.73

Q: How did the “gcPBM binding intensity (ln)” value turn out when “CAAATACATGTGTAAAGTACATATTAATAAGTCTTT [XGTACX_site6342]” was run?
A: 7.57 ± 0.53

Q: “TACTGTGATAGCACCACACACGCAAAAGTGAGTATA [CACACA_site1109]” was tested. Which “gcPBM binding intensity (ln)” value did it give?
A: 9.45 ± 0.16

Q: “TATATTTAGTAAAAAGGTACCATTCTTATTTATATT [CACACA_negctrl_site1165]” was tested. Which “gcPBM binding intensity (ln)” value did it give?
A: 7.42 ± 0.46

Q: “TATATTAATAGACACACACACATATTTATATTTATA [CACACA_site6859]” was tested. Which “gcPBM binding intensity (ln)” value did it give?
A: 7.71 ± 0.41

Q: How did the “gcPBM binding intensity (ln)” value turn out when “TTTCAGCCAAACGATAAACTACGACACTTGAACGAA [CACACA_negctrl_site1747]” was run?
A: 7.5 ± 0.52
